# Measured values published in the supplement of paper PMC8728848.
# Some of the results follow.
# B1: SSA (Sclerotinia sclerotiorum), A7XUK7 (protein)
# chain: MGFKGVGTYEIVPYQAPSLNLNAWEGKLEPGAVVRTYTRGDKPSDNAKWQVALVAGSGDSAEYLIINVHSGYFLTATKENHIVSTPQISPTDPSARWTIKPATTHQYEVFTINNKVSELGQLTVKDYSTHSGADVLSASAKTADNQKWYFDAK
# Columns and labels:
# Assay in all cases: glycan array binding signal (z-score within array); higher = stronger binding
# Settings in all cases: glycan notation: IUPAC condensed, linker removed
# [1] = biological target: GalNAc(b1-4)GlcNAc
# Method in brief: (§1)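 From the Consortium for Functional Glycomics database, 3228 arrays were curated, keeping only those whose protein sequence was available. Binding is given as a within-array Z-score averaged across arrays sharing a protein sequence and across linkers. Negative Z-scores can be read as non-binding.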
# [2] = biological target: GalNAc(b1-4)GlcNAc(b1-2)Man(a1-3)[GalNAc(b1-4)GlcNAc(b1-2)Man(a1-6)]Man(b1-4)GlcNAc(b1-4)GlcNAc
# Method in brief: as §1
# [3] = biological target: Glc(a1-4)Glc
# Method in brief: as §1
# [4] = biological target: Glc(a1-6)Glc(a1-6)Glc
# Method in brief: as §1
# [5] = biological target: Glc(b1-4)Glc
# Method in brief: as §1
# [6] = biological target: Glc(b1-6)Glc
# Method in brief: as §1
# [7] = biological target: GlcA(b1-3)Gal
# Method in brief: as §1
# [8] = biological target: GlcA(b1-3)GlcNAc
# Method in brief: as §1
# [9] = biological target: GlcA(b1-6)Gal
# Method in brief: as §1
# [10] = biological target: GlcNAc(a1-3)Gal(b1-4)GlcNAc
# Method in brief: as §1
# [11] = biological target: GlcNAc(a1-4)Gal(b1-3)GlcNAc
# Method in brief: as §1
# [12] = biological target: GlcNAc(a1-4)Gal(b1-4)GalNAc
# Method in brief: as §1
# [13] = biological target: GlcNAc(a1-4)Gal(b1-4)GlcNAc
# Method in brief: as §1
# [14] = biological target: GlcNAc(a1-4)Gal(b1-4)GlcNAc(b1-3)Gal(b1-4)Glc
# Method in brief: as §1
# [15] = biological target: GlcNAc(a1-4)Gal(b1-4)GlcNAc(b1-3)Gal(b1-4)GlcNAc
# Method in brief: as §1
# [16] = biological target: GlcNAc(a1-4)Gal(b1-4)GlcNAc(b1-3)Gal(b1-4)GlcNAc(b1-3)Gal(b1-4)GlcNAc
# Method in brief: as §1
# [17] = biological target: GlcNAc(a1-4)Gal(b1-4)GlcNAc(b1-3)Gal(b1-4)[Fuc(a1-3)]GlcNAc(b1-3)Gal(b1-4)[Fuc(a1-3)]GlcNAc
# Method in brief: as §1
# [18] = biological target: GlcNAc(a1-6)Gal(b1-4)GlcNAc
# Method in brief: as §1
# [19] = biological target: GlcNAc(b1-2)Gal(b1-3)GalNAc
# Method in brief: as §1
# [20] = biological target: GlcNAc(b1-2)Man(a1-3)[GlcNAc(b1-2)Man(a1-6)]Man(b1-4)GlcNAc(b1-4)GlcNAc
# Method in brief: as §1
# [21] = biological target: GlcNAc(b1-2)Man(a1-3)[GlcNAc(b1-2)Man(a1-6)]Man(b1-4)GlcNAc(b1-4)[Fuc(a1-6)]GlcNAc
# Method in brief: as §1
# [22] = biological target: GlcNAc(b1-3)Gal
# Method in brief: as §1
# [23] = biological target: GlcNAc(b1-3)Gal(b1-3)GalNAc
# Method in brief: as §1
# [24] = biological target: GlcNAc(b1-3)Gal(b1-4)Glc
# Method in brief: as §1
# [25] = biological target: GlcNAc(b1-3)Gal(b1-4)GlcNAc
# Method in brief: as §1
# [26] = biological target: GlcNAc(b1-3)Gal(b1-4)GlcNAc(b1-3)Gal(b1-4)GlcNAc
# Method in brief: as §1
# [27] = biological target: GlcNAc(b1-3)GalNAc
# Method in brief: as §1
# [28] = biological target: GlcNAc(b1-3)Man
# Method in brief: as §1
# [29] = biological target: GlcNAc(b1-3)[GlcNAc(b1-4)][GlcNAc(b1-6)]GlcNAc
# Method in brief: as §1
# [30] = biological target: GlcNAc(b1-3)[GlcNAc(b1-6)]Gal(b1-4)GlcNAc
# Method in brief: as §1
# [31] = biological target: GlcNAc(b1-3)[GlcNAc(b1-6)]GalNAc
# Method in brief: as §1
# [32] = biological target: GlcNAc(b1-3)[GlcNAc(b1-6)]GlcNAc(b1-4)GlcNAc
# Method in brief: as §1
# [33] = biological target: GlcNAc(b1-4)Gal(b1-4)GlcNAc
# Method in brief: as §1
# [34] = biological target: GlcNAc(b1-4)GlcNAc
# Method in brief: as §1
# [35] = biological target: GlcNAc(b1-4)GlcNAc(b1-4)GlcNAc
# Method in brief: as §1
# [36] = biological target: GlcNAc(b1-4)GlcNAc(b1-4)GlcNAc(b1-4)GlcNAc(b1-4)GlcNAc
# Method in brief: as §1
# [37] = biological target: GlcNAc(b1-4)GlcNAc(b1-4)GlcNAc(b1-4)GlcNAc(b1-4)GlcNAc(b1-4)GlcNAc
# Method in brief: as §1
# [38] = biological target: GlcNAc(b1-4)[GlcNAc(b1-6)]GalNAc
# Method in brief: as §1
# [39] = biological target: GlcNAc(b1-6)Gal(b1-4)GlcNAc
# Method in brief: as §1
# [40] = biological target: GlcNAc(b1-6)GalNAc
# Method in brief: as §1
# [41] = biological target: GlcNAc3Prop(b1-4)GlcNAc
# Method in brief: as §1
# [42] = biological target: GlcNAc6S(b1-3)Gal(b1-4)GlcNAc
# Method in brief: as §1
# [43] = biological target: Kdn(a2-3)Gal(b1-3)GalNAc
# Method in brief: as §1
# [44] = biological target: Kdn(a2-3)Gal(b1-3)GlcNAc
# Method in brief: as §1
# [45] = biological target: Kdn(a2-3)Gal(b1-4)Glc
# Method in brief: as §1
binder,measurement,setting,value
B1,glycan array binding signal (z-score),[1],5.32
same,glycan array binding signal (z-score),[2],0.464
same,glycan array binding signal (z-score),[3],-0.263
same,glycan array binding signal (z-score),[4],-0.343
same,glycan array binding signal (z-score),[5],-0.333
same,glycan array binding signal (z-score),[6],-0.332
same,glycan array binding signal (z-score),[7],-0.355
same,glycan array binding signal (z-score),[8],-0.209
same,glycan array binding signal (z-score),[9],-0.271
same,glycan array binding signal (z-score),[10],-0.323
same,glycan array binding signal (z-score),[11],-0.065
same,glycan array binding signal (z-score),[12],0.223
same,glycan array binding signal (z-score),[13],-0.441
same,glycan array binding signal (z-score),[14],-0.171
same,glycan array binding signal (z-score),[15],-0.207
same,glycan array binding signal (z-score),[16],-0.05
same,glycan array binding signal (z-score),[17],0.158
same,glycan array binding signal (z-score),[18],-0.348
same,glycan array binding signal (z-score),[19],-0.233
same,glycan array binding signal (z-score),[20],-0.274
same,glycan array binding signal (z-score),[21],-0.123
same,glycan array binding signal (z-score),[22],-0.526
same,glycan array binding signal (z-score),[23],-0.406
same,glycan array binding signal (z-score),[24],-0.397
same,glycan array binding signal (z-score),[25],-0.342
same,glycan array binding signal (z-score),[26],-0.207
same,glycan array binding signal (z-score),[27],-0.46
same,glycan array binding signal (z-score),[28],-0.302
same,glycan array binding signal (z-score),[29],-0.349
same,glycan array binding signal (z-score),[30],-0.335
same,glycan array binding signal (z-score),[31],-0.367
same,glycan array binding signal (z-score),[32],-0.467
same,glycan array binding signal (z-score),[33],-0.391
same,glycan array binding signal (z-score),[34],-0.358
same,glycan array binding signal (z-score),[35],-0.031
same,glycan array binding signal (z-score),[36],-0.361
same,glycan array binding signal (z-score),[37],-0.42
same,glycan array binding signal (z-score),[38],-0.416
same,glycan array binding signal (z-score),[39],-0.344
same,glycan array binding signal (z-score),[40],-0.398
same,glycan array binding signal (z-score),[41],-0.231
same,glycan array binding signal (z-score),[42],-0.17
same,glycan array binding signal (z-score),[43],-0.147
same,glycan array binding signal (z-score),[44],-0.31
same,glycan array binding signal (z-score),[45],-0.228
